Reference: patent US8415399B2, “Retrovirus-infection inhibitor” (Nagasaki University, priority 2006, dated 2013)
Where two headings read alike, the source gives them in different places.

Test system: CXCR4-tropic HIV-1 (HXB2) vector
Settings: for HIV vector infection (qualitative): NP2/CD4/X4, TE671/CD4 and HeLa/CD4 cell, various concentrations
Method: pLP1; pLP2, pLenti6/V5-GW/LacZ and HXB2 env plasmid DNA (each 3 μg) were transfected to 293T cells, cultured in a 10 cm culture dish, according to a lipofection method (Mirus or Invitrogen). After 24 hr, the medium was exchanged with a fresh medium. […] CXCR4-tropic HIV vector was present in the culture medium.
HIV vector was inoculated and the cells were cultured for 24 hr. The medium was exchanged with a fresh medium and the cells were further cultured for 24 hr. The cells were fixed with glutaraldehyde and stained with X-Gal overnight. The cells stained blue was counted and the value was used as an infectivity titer.
Fenretinide was added to Dulbecco-modified Eagle medium (Sigma Ltd. or Wako) containing 2% fetal bovine serum and antibiotic to various concentrations, and the target cells were cultured for 2 days at 37° C. in the presence of 5% CO2. HIV vector (culture supernatant containing HIV vector, mentioned above) was inoculated to the cells and the infectivity titer was measured.

Structure (SMILES) | HIV vector infection (qualitative) | HIV-1 vector infection suppressed to (relative to untreated) (NP2/CD4/X4 cell, 2 μM, Example 3) | HIV-1 vector infection decreased to (relative to untreated) (NP2/CD4/X4 cell, 5 μM, Example 3) | HIV-1 vector infection suppressed to (relative to untreated) (NP2/CD4/X4 cell, 20 μM, Example 3)
CC1=C(/C=C/C(C)=C/C=C/C(C)=C/C(=O)Nc2ccc(O)cc2)C(C)(C)CCC1 [fenretinide, 4-Hydroxyphenylretinoid, reference compound] | suppressed infectious property of HIV vector in a concentration-dependent manner | 40% | – | –
CC(C)=CCC/C(C)=C/CC/C(C)=C/C=C/C(C)=C/C(=O)O [NIK-333] | have an HIV vector infection suppressive action | – | 20% | –
CC(C)=CCC/C(C)=C/CC/C(C)=C/CC/C(C)=C/C(=O)O [GGA, geranylgeranoic acid] | suppress HIV vector infection in a concentration-dependent manner | – | – | 10%
